# Measured values reported in the supplement of paper PMC8728848.
# Some of the results follow.
# B1: RNase 1 (Bos taurus), P61823 (protein)
# chain: MALKSLVLLSLLVLVLLLVRVQPSLGKETAAAKFERQHMDSSTSAASSSNYCNQMMKSRNLTKDRCKPVNTFVHESLADVQAVCSQKNVACKNGQTNCYQSYSTMSITDCRETGSSKYPNCAYKTTQANKHIIVACEGNPYVPVHFDASV
# Assays:
# Experiment in all cases: glycan array binding signal (z-score within array); higher = stronger binding
# Details in all cases: glycan notation: IUPAC condensed, linker removed
# Gal6S(b1-4)Glc = target: Gal6S(b1-4)Glc
# In short: (§1)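 Columns mapping to the same glycan were averaged after glycan names were converted to IUPAC-condensed notation. The data come from 3228 arrays in the Consortium for Functional Glycomics database, limited to those with an available protein sequence. Binding is reported as a within-array Z-score averaged across arrays of one protein sequence and across linkers.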
# Gal6S(b1-4)Glc6S = target: Gal6S(b1-4)Glc6S
# In short: as §1
# Gal6S(b1-4)GlcNAc = target: Gal6S(b1-4)GlcNAc
# In short: as §1
# GalNAc(a1-3)Gal = target: GalNAc(a1-3)Gal
# In short: as §1
# GalNAc(a1-3)GalNAc = target: GalNAc(a1-3)GalNAc
# In short: as §1
# [1] = target: GalNAc(b1-3)Gal(a1-4)Gal(b1-4)GlcNAc
# In short: as §1
# GalNAc(b1-4)GlcNAc = target: GalNAc(b1-4)GlcNAc
# In short: as §1
# Glc(a1-4)Glc = target: Glc(a1-4)Glc
# In short: as §1
# Glc(a1-6)Glc(a1-6)Glc = target: Glc(a1-6)Glc(a1-6)Glc
# In short: as §1
# Glc(b1-4)Glc = target: Glc(b1-4)Glc
# In short: as §1
# Glc(b1-6)Glc = target: Glc(b1-6)Glc
# In short: as §1
# GlcA(b1-3)Gal = target: GlcA(b1-3)Gal
# In short: as §1
# GlcA(b1-6)Gal = target: GlcA(b1-6)Gal
# In short: as §1
# [2] = target: GlcNAc(a1-3)Gal(b1-4)GlcNAc
# In short: as §1
# [3] = target: GlcNAc(a1-6)Gal(b1-4)GlcNAc
# In short: as §1
# [4] = target: GlcNAc(b1-2)Gal(b1-3)GlcNAc
# In short: as §1
# [5] = target: GlcNAc(b1-2)Man(a1-3)[GlcNAc(b1-2)Man(a1-6)]Man(b1-4)GlcNAc(b1-4)GlcNAc
# In short: as §1
# GlcNAc(b1-3)Gal = target: GlcNAc(b1-3)Gal
# In short: as §1
# [6] = target: GlcNAc(b1-3)Gal(b1-3)GalNAc
# In short: as §1
# GlcNAc(b1-3)Gal(b1-4)Glc = target: GlcNAc(b1-3)Gal(b1-4)Glc
# In short: as §1
# [7] = target: GlcNAc(b1-3)Gal(b1-4)GlcNAc
# In short: as §1
# [8] = target: GlcNAc(b1-3)Gal(b1-4)GlcNAc(b1-3)Gal(b1-4)GlcNAc
# In short: as §1
# GlcNAc(b1-3)GalNAc = target: GlcNAc(b1-3)GalNAc
# In short: as §1
# [9] = target: GlcNAc(b1-3)[GlcNAc(b1-4)][GlcNAc(b1-6)]GlcNAc
# In short: as §1
# [10] = target: GlcNAc(b1-3)[GlcNAc(b1-6)]Gal(b1-4)GlcNAc
# In short: as §1
# [11] = target: GlcNAc(b1-3)[GlcNAc(b1-6)]GlcNAc
# In short: as §1
# [12] = target: GlcNAc(b1-4)Gal(b1-4)GlcNAc
# In short: as §1
# [13] = target: GlcNAc(b1-4)GlcNAc(b1-4)GlcNAc
# In short: as §1
# [14] = target: GlcNAc(b1-4)GlcNAc(b1-4)GlcNAc(b1-4)GlcNAc(b1-4)GlcNAc
# In short: as §1
# [15] = target: GlcNAc(b1-4)GlcNAc(b1-4)GlcNAc(b1-4)GlcNAc(b1-4)GlcNAc(b1-4)GlcNAc
# In short: as §1
# [16] = target: GlcNAc(b1-4)[GlcNAc(b1-6)]GalNAc
# In short: as §1
# [17] = target: GlcNAc(b1-6)Gal(b1-4)GlcNAc
# In short: as §1
# GlcNAc(b1-6)GalNAc = target: GlcNAc(b1-6)GalNAc
# In short: as §1
# Kdn(a2-3)Gal(b1-3)GlcNAc = target: Kdn(a2-3)Gal(b1-3)GlcNAc
# In short: as §1
# Kdn(a2-3)Gal(b1-4)GlcNAc = target: Kdn(a2-3)Gal(b1-4)GlcNAc
# In short: as §1
# [18] = target: Man(a1-2)Man(a1-2)Man(a1-3)Man
# In short: as §1
# [19] = target: Man(a1-2)Man(a1-2)Man(a1-3)[Man(a1-2)Man(a1-3)[Man(a1-2)Man(a1-6)]Man(a1-6)]Man(b1-4)GlcNAc(b1-4)GlcNAc
# In short: as §1
# [20] = target: Man(a1-2)Man(a1-2)Man(a1-3)[Man(a1-2)Man(a1-6)[Man(a1-3)]Man(a1-6)]Man(b1-4)GlcNAc(b1-4)GlcNAc
# In short: as §1
# [21] = target: Man(a1-2)Man(a1-2)Man(a1-6)[Man(a1-3)]Man
# In short: as §1
# Man(a1-2)Man(a1-3)Man = target: Man(a1-2)Man(a1-3)Man
# In short: as §1
# [22] = target: Man(a1-2)Man(a1-3)[Man(a1-2)Man(a1-6)]Man
# In short: as §1
# [23] = target: Man(a1-2)Man(a1-3)[Man(a1-3)[Man(a1-6)]Man(a1-6)]Man(b1-4)GlcNAc(b1-4)GlcNAc
# In short: as §1
# [24] = target: Man(a1-2)Man(a1-3)[Man(a1-6)]Man(a1-6)[Man(a1-2)Man(a1-3)]Man(b1-4)GlcNAc(b1-4)GlcNAc
# In short: as §1
# Man(a1-3)[Man(a1-6)]Man = target: Man(a1-3)[Man(a1-6)]Man
# In short: as §1
# [25] = target: Man(a1-3)[Man(a1-6)]Man(a1-6)[Man(a1-3)]Man(b1-4)GlcNAc(b1-4)GlcNAc
# In short: as §1
# [26] = target: Man(a1-3)[Man(a1-6)]Man(b1-4)GlcNAc(b1-4)GlcNAc
# In short: as §1
# Man(b1-4)GlcNAc = target: Man(b1-4)GlcNAc
# In short: as §1
# Neu5Ac(a2-3)Gal = target: Neu5Ac(a2-3)Gal
# In short: as §1
# [27] = target: Neu5Ac(a2-3)Gal(b1-3)GalNAc
# In short: as §1
binder,measurement,setting,value
B1,glycan array binding signal (z-score),Gal6S(b1-4)Glc,-0.073
same,glycan array binding signal (z-score),Gal6S(b1-4)Glc6S,-0.067
same,glycan array binding signal (z-score),Gal6S(b1-4)GlcNAc,-0.2
same,glycan array binding signal (z-score),GalNAc(a1-3)Gal,-0.222
same,glycan array binding signal (z-score),GalNAc(a1-3)GalNAc,-0.137
same,glycan array binding signal (z-score),[1],0.455
same,glycan array binding signal (z-score),GalNAc(b1-4)GlcNAc,-0.186
same,glycan array binding signal (z-score),Glc(a1-4)Glc,-0.235
same,glycan array binding signal (z-score),Glc(a1-6)Glc(a1-6)Glc,-0.187
same,glycan array binding signal (z-score),Glc(b1-4)Glc,-0.207
same,glycan array binding signal (z-score),Glc(b1-6)Glc,-0.174
same,glycan array binding signal (z-score),GlcA(b1-3)Gal,-0.161
same,glycan array binding signal (z-score),GlcA(b1-6)Gal,-0.088
same,glycan array binding signal (z-score),[2],-0.233
same,glycan array binding signal (z-score),[3],-0.17
same,glycan array binding signal (z-score),[4],0.031
same,glycan array binding signal (z-score),[5],-0.106
same,glycan array binding signal (z-score),GlcNAc(b1-3)Gal,-0.181
same,glycan array binding signal (z-score),[6],-0.194
same,glycan array binding signal (z-score),GlcNAc(b1-3)Gal(b1-4)Glc,-0.099
same,glycan array binding signal (z-score),[7],-0.212
same,glycan array binding signal (z-score),[8],-0.245
same,glycan array binding signal (z-score),GlcNAc(b1-3)GalNAc,-0.251
same,glycan array binding signal (z-score),[9],-0.069
same,glycan array binding signal (z-score),[10],-0.22
same,glycan array binding signal (z-score),[11],-0.116
same,glycan array binding signal (z-score),[12],-0.174
same,glycan array binding signal (z-score),[13],-0.038
same,glycan array binding signal (z-score),[14],-0.028
same,glycan array binding signal (z-score),[15],-0.15
same,glycan array binding signal (z-score),[16],-0.122
same,glycan array binding signal (z-score),[17],-0.165
same,glycan array binding signal (z-score),GlcNAc(b1-6)GalNAc,-0.213
same,glycan array binding signal (z-score),Kdn(a2-3)Gal(b1-3)GlcNAc,-0.162
same,glycan array binding signal (z-score),Kdn(a2-3)Gal(b1-4)GlcNAc,-0.237
same,glycan array binding signal (z-score),[18],-0.204
same,glycan array binding signal (z-score),[19],-0.208
same,glycan array binding signal (z-score),[20],-0.153
same,glycan array binding signal (z-score),[21],-0.001
same,glycan array binding signal (z-score),Man(a1-2)Man(a1-3)Man,-0.174
same,glycan array binding signal (z-score),[22],-0.205
same,glycan array binding signal (z-score),[23],-0.216
same,glycan array binding signal (z-score),[24],-0.132
same,glycan array binding signal (z-score),Man(a1-3)[Man(a1-6)]Man,-0.147
same,glycan array binding signal (z-score),[25],-0.171
same,glycan array binding signal (z-score),[26],-0.179
same,glycan array binding signal (z-score),Man(b1-4)GlcNAc,-0.209
same,glycan array binding signal (z-score),Neu5Ac(a2-3)Gal,-0.215
same,glycan array binding signal (z-score),[27],-0.23
